From PubChem BioAssay AID651820 (National Center for Advancing Translational Sciences (NCATS), 2012)
“And” between values parts separate entries of the source, which are not always exact repeats. Identical values can stand only once. The whole screen tested about 340,000 compounds, of which about 12,000 (3.5%) were called active. Inconclusive results, whose numbers are uncertain, are shown with a selection of clear calls. Calls follow the shape of the dose curve; as a rule, active = well fitted inhibition curve with a large enough effect; inconclusive = small, poorly fitted or top-dose-only effect, or another doubt; inactive = no such curve, though single readings can be large or run the other way. Potencies beside an inconclusive call are fits to weak or partial responses and may not hold up.

Assay: qHTS Assay for Inhibitors of Hepatitis C Virus (HCV)
Settings: Huh7.5.1 HCVcc-Cre (HCVcc is cell-culture hepatitis C virus) infection, luciferase reporter, 44 h; activity change, negative = inhibition: at 41.8 µM (top of the series) unless noted
Procedure, shortened: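 Cells seeded at 1,000/well and cultured 4 h, then compounds added followed by HCVcc-Cre virus (~0.5 moi). After 44 h further culture, luciferase substrate was added, plates held 15 min at room temperature, and luminescence read for 15 sec.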
% is scaled to controls: 0 for no effect and ±100 for the full control effect; potency is read from the fitted curve at half-maximal effect; tags tell the direction and shape of the fitted curve.

Question: Which “activity change, negative = inhibition” value does the source give for CN(C)c1nc(-c2ccccc2)ns1 here?
Answer: inactive: -5.01%

Question: With COc1ccc(-c2cc(C(F)(F)F)nc(SCC(=O)Nc3ccc4c(c3)OCO4)n2)cc1OC as the compound, how does the Potency read?
Answer: inconclusive: 2.51 µM [inhibitor, full curve]

Question: With CCCCn1c(N)c(N(CC(C)C)C(=O)CSc2nn(-c3ccc(F)cc3)c(=S)s2)c(=O)[nH]c1=O as the compound, how does the Potency read?
Answer: inconclusive: 31.6 µM [inhibitor, single point]

Question: With O=C(NCc1ccccc1)c1ccc(NC(=O)C2CCCC2)cc1 as the compound, how does the Potency read?
Answer: inconclusive: 11.2 µM [inhibitor, single point]

Question: Which “activity change, negative = inhibition” value does the source give for CC(C)NC(=S)NCc1cccs1 here?
Answer: inactive: 29.5%

Question: For CCn1cnc2cc(NCc3cccc(OC)c3O)ccc21, which Potency is on record?
Answer: inconclusive: 11.2 µM [inhibitor, single point]

Question: With CC(C(=O)N1c2ccccc2CC1C)N1CCN(S(=O)(=O)c2ccccc2F)CC1 (centres undefined) as the compound, how does the “activity change, negative = inhibition” value read?
Answer: inactive: -7.64%

Question: Which Potency does the source give for COc1ccc(CCNC(=O)c2ccc(N(C)S(=O)(=O)c3ccccc3)cc2)cc1 here?
Answer: inconclusive: 7.94 µM [inhibitor, partial curve]

Question: For CC(C)C(=O)Nc1ccc2oc(-c3cc(F)c(F)cc3Cl)nc2c1, which Potency is on record?
Answer: inconclusive: 0.891 µM [inhibitor, full curve, poor fit]

Question: For Nc1nc(SCc2nc3scc(-c4ccccc4)c3c(=O)[nH]2)n[nH]1, which Potency is on record?
Answer: inconclusive: 12.6 µM [inhibitor, single point]

Question: With Cn1nc(-c2ccccc2)c(CSc2ccccc2)c1Cl as the compound, how does the Potency read?
Answer: inconclusive: 8.91 µM [inhibitor, partial curve]

Question: For CCOc1ccccc1NC(=O)Cn1c(=O)oc2cc(Cl)ccc21, which “activity change, negative = inhibition” value is on record?
Answer: inactive: -19.4%

Question: With O=C(CCc1nc(-c2ccccc2Cl)no1)NC1CCCCC1 as the compound, how does the Potency read?
Answer: inconclusive: 11.2 µM [inhibitor, partial curve]

Question: Which Potency does the source give for Cc1csc(NC(=O)CSc2nc(C(C)C)nc3ccccc23)n1 here?
Answer: inconclusive: 31.6 µM [inhibitor, single point]

Question: Which Potency does the source give for CCC1Oc2ccc(C)cc2N(CC(=O)NCCCN2CCN(Cc3ccccc3)CC2)C1=O (centres undefined) here?
Answer: inactive and inconclusive: 31.6 µM [inhibitor, single point]

Question: With CS(=O)(=O)c1ccc(C2=C(c3ccccc3)C(=O)OC2)cc1 as the compound, how does the Potency read?
Answer: active: 7.08 µM

Question: For COC(=O)c1ccccc1NC(=S)NC(=O)c1ccc2c(c1)OCO2, which “activity change, negative = inhibition” value is on record?
Answer: inactive: -18%

Question: Which Potency does the source give for C/C(CC(=O)Nc1cc(C)ccn1)=N\NC(=O)c1cccc(C)c1O here?
Answer: inconclusive: 20 µM [inhibitor, single point]

Question: With O=C(CN1CCCC1)Nc1ccc(S(=O)(=O)N2CCCCC2)cc1 as the compound, how does the activity change, negative = inhibition read?
Answer: inconclusive: -39.4% [inhibitor] [at 8.37 µM]

Question: For O=C(NC(=S)Nc1ccc2c(c1)OCCO2)c1cccc2ccccc12, which “activity change, negative = inhibition” value is on record?
Answer: inactive: -23.1%

Question: For Cc1ccnc(NC(=O)c2ccc(Cl)c(S(=O)(=O)N3CCCC3)c2)c1, which Potency is on record?
Answer: inconclusive: 31.6 µM [inhibitor, single point]

Question: Which Potency does the source give for Fc1ccccc1Oc1nc(-c2ccncc2)nc2ccccc12 here?
Answer: active: 0.562 µM

Question: For CNC(=O)c1cc2c(s1)-c1ccccc1CC2, which Potency is on record?
Answer: inconclusive: 12.6 µM [inhibitor, single point]

Question: For CCSc1nc(-c2ccccc2)nc2c1CCCC2, which Potency is on record?
Answer: inconclusive: 3.98 µM [inhibitor, partial curve]

Question: Which Potency does the source give for COCCCC1CCN(Cc2cn[nH]c2-c2cc(OC)c(OC)c(OC)c2)CC1 here?
Answer: inconclusive: 22.4 µM [inhibitor, single point]

Question: With Cn1nnnc1SCc1ccc(C(=O)Nc2ccc(Br)cc2)cc1 as the compound, how does the Potency read?
Answer: inconclusive: 7.94 µM [inhibitor, partial curve]

Question: With CCc1nc(N2CCN(C(C)=O)CC2)c2c3c(sc2n1)CC(C(C)(C)C)CC3 (centres undefined) as the compound, how does the Potency read?
Answer: inconclusive: 31.6 µM [inhibitor, single point]

Question: For O=C(/C=C/c1cn(-c2ccccc2)nc1-c1cccnc1)c1ccco1, which Potency is on record?
Answer: inconclusive: 10 µM [inhibitor, partial curve]

Question: For CCC(CO)Oc1cc(NCc2cccc(OC)c2)c2ncn(C(C)C)c2c1 (centres undefined), which Potency is on record?
Answer: active: 2 µM

Question: Which Potency does the source give for Cc1onc(-c2ccccc2)c1C(=O)NNC(=O)c1ccccc1O here?
Answer: inconclusive: 6.31 µM [inhibitor, partial curve]

Question: For Cc1ccc(OCC(=O)Nc2ccc3c(c2)CCC3)c([N+](=O)[O-])n1, which Potency is on record?
Answer: inconclusive: 31.6 µM [inhibitor, single point]

Question: Which Potency does the source give for O=C(Nc1ccc(S(=O)(=O)N2CCOCC2)cc1)c1ccccc1 here?
Answer: inconclusive: 5.62 µM [inhibitor, single point]

Question: For COC(=O)c1ccccc1NC(=O)c1ccc2c(c1)OCCO2, which Potency is on record?
Answer: active: 10 µM

Question: With CNC(=S)NNC(=O)c1ccc(C(C)(C)C)cc1 as the compound, how does the “activity change, negative = inhibition” value read?
Answer: inactive: -3.17%

Question: Which Potency does the source give for O=C(c1ccc(-n2cnnn2)cc1)N1CCN(C(c2ccccc2)c2ccccc2)CC1 here?
Answer: inconclusive: 31.6 µM [inhibitor, single point]

Question: With NS(=O)(=O)c1cc(C(=O)Nc2ccc3c(c2)CCC3)ccc1Cl as the compound, how does the Potency read?
Answer: inconclusive: 25.1 µM [inhibitor, single point]

Question: With CCOC(=O)N1CCC(NC(=O)CSCc2cnn(-c3ccccc3)c2-n2cccc2)CC1 as the compound, how does the Potency read?
Answer: inconclusive: 20 µM [inhibitor, single point]

Question: With COc1ccc(C2CC(C(F)(F)F)n3nc(C(=O)NCc4cn(C)nc4C)c(Cl)c3N2)cc1 (centres undefined) as the compound, how does the Potency read?
Answer: inconclusive: 31.6 µM [inhibitor, single point]

Question: For CCCN(CC1CC1)C(=S)NC(=O)c1ccccc1Br, which “activity change, negative = inhibition” value is on record?
Answer: inactive: 11.2%

Question: Which Potency does the source give for CCOC(=O)c1c(NC(=O)C(Sc2ccccc2)c2ccccc2)sc(C(N)=O)c1C (centres undefined) here?
Answer: inconclusive: 3.16 µM [inhibitor, partial curve, poor fit]

Question: Which Potency does the source give for O=C1CN2CCC1C/C2=C\c1ccnc2c(Cl)cccc12 (centres undefined) here?
Answer: inconclusive: 11.2 µM [inhibitor, partial curve]

Question: With O=C(CN1C(=O)NC(c2ccccc2)(c2ccccc2)C1=O)NC1CCCC1 as the compound, how does the Potency read?
Answer: inconclusive: 5.01 µM [inhibitor, partial curve]

Question: For NS(=O)(=O)c1ccc(CCNC(=O)CN2CCC(Cc3ccccc3)CC2)cc1, which Potency is on record?
Answer: inconclusive: 5.01 µM [inhibitor, full curve]

Question: With Cc1c(C(=O)N(C)C2CCCCC2)sc2ncnc(N3CCN(c4ccccc4)CC3)c12 as the compound, how does the Potency read?
Answer: inconclusive: 31.6 µM [inhibitor, single point]
